About 200 (0.44%) of roughly 45,000 compounds were called active. Roughly 7% stayed inconclusive and do not appear here. Calls follow the shape of the dose curve; as a rule, active = well fitted activation curve with a large enough effect; inconclusive = small, poorly fitted or top-dose-only effect; inactive = no such curve, though single readings can be large or run the other way. This is one part of the list.
Test: qHTS of TDP-43 Inhibitors: NCGC Sytravon Library Screen; also: nearly all actives have a fitted effect of over 55% in size; as to growth rescue (activation): 0% is about no effect
Conditions: yeast TDP-43 toxicity rescue, BacTiter-Glo growth, 24 h; series mostly up to 46.1 µM; growth rescue (activation): at the top concentration
Method in brief: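 TDP-43-expressing yeast, pregrown in raffinose, seeded at OD600 0.02 in galactose medium with compound for 24 hr at 30 deg C. Growth read by BacTiter-Glo luminescence, so rescue of toxicity appears as activation.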
Potency is read from the fitted curve at half-maximal effect.

| SMILES | growth rescue (activation) | Potency |
| --- | --- | --- |
| Cc1ccc(S(=O)(=O)NCCc2ccncc2)cc1[N+](=O)[O-] | inactive: 2.82% |  |
| NS(=O)(=O)c1ccc(NC(=S)NC(=O)C2CCCCC2)cc1 | inactive: 15.4% |  |
| Fc1cccc(Cl)c1CNCc1cccnc1 | inactive: -4.27% |  |
| COc1cc(C(=O)O)c2ccccc2n1 | inactive: 7.62% |  |
| C/C(=N/NS(=O)(=O)c1ccc(C)cc1)c1c(O)c2ccccc2oc1=O | inactive: 20.1% |  |
| CC(C)c1nnc(NC(=O)c2cccc(NC(=O)C(F)(F)F)c2)s1 | inactive: 16% |  |
| Cc1[nH]n(-c2ccccc2)c(=O)c1/C=N\NC(=O)C1COc2ccccc2O1 (stereo not drawn) | inactive: -0.699% |  |
| Cc1ccc2cc(CN(C(=O)c3ccco3)c3cccc(C)c3C)c(=O)[nH]c2c1 | inactive: 4.71% |  |
| FC(F)(F)c1cc(N2CCOCC2)nc(-c2ccccc2)n1 | inactive: -1.74% |  |
| CCOC(=O)c1c(C)[nH]c(C)c1C(=O)COC(=O)COc1ccc(Cl)c(C)c1 | inactive: -16.9% |  |
| CC(C)CC(OC(=O)c1ccco1)C(=O)NC1CCCC1 (stereo not drawn) | inactive: -4.63% |  |
| O=C(Nc1cccc(S(=O)(=O)NCc2ccco2)c1)c1cc(-c2ccc(F)cc2)nc2ccccc12 | inactive: 13.5% |  |
| CC(C)CNC(=O)c1cccc2c(-c3cccnc3)coc12 | inactive: 0.909% |  |
| O=[N+]([O-])C(=C1SCCS1)C(=C(Cl)Cl)N1CCCCC1 | inactive: 39.5% |  |
| Fc1cccc(/C=N/Nc2ccc3ccccc3n2)c1 | inactive: 22.6% |  |
| Cc1ccc(CN2CCSc3ccc(C(=O)NCc4ccc(OC(C)C)cc4)cc32)cc1 | inactive: 9% |  |
| COc1ccccc1-c1c(C)nn2c(-c3ccccc3)cc(-c3ccccc3)nc12 | inactive: 5.38% |  |
| O=C(COC(=O)CCc1ccccc1)Nc1ccc(F)cc1Cl | inactive: -4.3% |  |
| COc1cc2c(cc1OC)CN(Cc1cc(OC)c3c(c1)OCO3)CC2 | inactive: 2.72% |  |
| Cn1c(NCCc2ccncc2)nc2cc(-c3ccccc3)sc2c1=O | inactive: 1.66% |  |
| O=C(CSc1ncnc2scc(-c3ccccc3)c12)NC1CCS(=O)(=O)C1 (stereo not drawn) | inactive: 12.5% |  |
| COc1ccccc1NC(=O)Cc1noc(CSc2n[nH]c(N)n2)n1 | inactive: 4.99% |  |
| CC(NC(=O)C(=O)NCCN1CCN(C(=O)c2ccc([N+](=O)[O-])cc2)CC1)c1ccccc1 (stereo not drawn) | inactive: 8.52% |  |

| SMILES | growth rescue (activation) | Potency |
| --- | --- | --- |
| CC(=O)c1cccc(NC(=O)COC(=O)c2cccc(N3C(=O)c4ccccc4C3=O)c2)c1 | inactive: 1.38% |  |
| COc1ccc(CC(N)c2csc(Nc3cnccn3)n2)cc1 (stereo not drawn) | inactive: -0.619% |  |
| CC1(C(=O)NS(=O)(=O)Cc2ccccc2)CCN1C(=O)Cc1ccccc1 (stereo not drawn) | inactive: 13.6% |  |
| COc1ccc(CNC(=O)COC(=O)CC2CC3CCC2C3)cc1OC (stereo not drawn) | inactive: -3.27% |  |
| CCOC(=O)c1c(-c2ccccc2)csc1NC(=O)/C(C#N)=C\c1ccc(O)c(OC)c1 | inactive: 21.1% |  |
| Cc1cc(C(=O)NNC(=O)COc2ccccc2Cl)n[nH]1 | inactive: 3.8% |  |
| Cc1ccsc1/C=N/N1CCN(c2ccccn2)CC1 | inactive: 3.93% |  |
| COc1cc(/C=N/NS(=O)(=O)c2ccc(C)cc2)ccc1OCc1cccc(C(=O)O)c1 | inactive: 7.13% |  |
| CCCNC(=O)C1(C)CCCN(C/C=C/c2ccccc2)C1 (stereo not drawn) | inactive: -1.13% |  |
| O=C(COC(=O)c1ccccc1)Nc1ncc([N+](=O)[O-])s1 | inactive: 2.63% |  |
| Cc1cc(C)c(NC(=O)CN2C(=O)NC(Cc3ccccc3)C2=O)c(C)c1 (stereo not drawn) | inactive: 0.277% |  |
| C/C(N)=C(/C#N)C(=O)CSc1nc2ccccc2c(=O)n1Cc1ccc(C)cc1 | inactive: 11.5% |  |
| CCOc1ccc(Oc2c(/C=N/NC(=O)C3CC3)c(C)nn2-c2ccccc2)cc1 | inactive: 17.4% |  |
| CCCCN1CCCCC1(C)C(=O)NCc1cccs1 (stereo not drawn) | inactive: 7.64% |  |
| Cc1cccc(NC(=O)CSc2cn[nH]n2)c1 | inactive: 9.33% |  |
| O=C(c1cccs1)c1cn(CCOc2ccc(Cl)cc2)c2ccccc12 | inactive: -4.83% |  |
| COc1cc(NC(=S)NCc2ccco2)c(OC)cc1Cl | inactive: 6.87% |  |
| O=C(C1CCN(Cc2ccc(F)cc2)CC1)N1CCN(C/C=C/c2ccccc2)CC1 | inactive: -20.8% |  |
| O=C(CN1C(=O)NC2(CCCc3ccccc32)C1=O)c1ccc(F)c(F)c1 (stereo not drawn) | inactive: 31.3% |  |
| O=C(CN(Cc1ccco1)C(=O)CNS(=O)(=O)c1ccc(F)cc1)NCc1ccccc1 | inactive: -4.39% |  |
| COc1ccc(/C(C)=N\NC(=O)CSc2nnc(C)s2)cc1 | inactive: -5.96% |  |
| Cc1ccc(NC(=O)c2ccccc2[N+](=O)[O-])nc1 | inactive: 16.2% |  |
| Cc1ccc(CNC(=O)c2ccccc2SCC(=O)NCC2CCCCC2)cc1 | inactive: 9.99% |  |

| SMILES | growth rescue (activation) | Potency |
| --- | --- | --- |
| Cc1noc(C)c1COc1ccc(C(=O)OC(C)C(=O)Nc2ccc(S(=O)(=O)N3CCOCC3)cc2)cc1 (stereo not drawn) | inactive: 24.9% |  |
| Cc1ccc(C)n1-c1ccc(-c2nnc3n2CCCCC3)s1 | inactive: -3.42% |  |
| COc1cccc2cc(-c3csc(NC(=O)CCC(=O)NCCCN4CCC(C)CC4)n3)c(=O)oc12 | inactive: 4.93% |  |
| CCOCCCNC(=O)C1CC(=O)N(CCc2ccc(C)cc2)C1 (stereo not drawn) | inactive: -0.172% |  |
| CCOc1ccccc1NC(=S)N(CCN(C)C)C(C)c1ccncc1 (stereo not drawn) | inactive: 1.67% |  |
| COC(C(=O)Nc1cc([N+](=O)[O-])ccc1C)c1ccccc1 (stereo not drawn) | inactive: 4.99% |  |
| O=C(O)c1cc(S(=O)(=O)NCCOc2ccccc2)ccc1Cl | inactive: 24.7% |  |
| CCCn1cc2c(c1-c1ccc(C)cc1)c(=O)n(C)c(=O)n2C | inactive: -2.32% |  |
| Cc1ccc(CNc2nc3ccc(Cl)cc3n3cnnc23)cc1 | inactive: 14.9% |  |
| COc1ccc(C(=O)C2CCCN(Cc3cn[nH]c3-c3ccccc3)C2)cc1OC (stereo not drawn) | inactive: 13.5% |  |
| CC(C)C(=O)Nc1cc(S(=O)(=O)N2CCOCC2)ccc1N1CCCCC1 | inactive: 16.8% |  |
| Cc1onc(NC(=O)c2ccc(Cl)cc2Cl)c1Br | inactive: 13.6% |  |
| COc1ccc(NC(=O)C2(C)CCN2C(=O)Cc2ccccc2)cc1OC (stereo not drawn) | inactive: 10.8% |  |
| NS(=O)(=O)c1ccc(CCNc2nn3c(-c4ccc(F)c(Cl)c4)cnc3s2)cc1 | inactive: 9.13% |  |
| CC1(C(=O)NS(=O)(=O)c2cccc(C#N)c2)CCN1C(=O)CCc1ccccc1 (stereo not drawn) | inactive: 9.07% |  |
| COc1cccc(OCC(=O)Nc2ccccc2NC(C)=O)c1 | inactive: 9.65% |  |
| COc1cc(C)c(C)cc1S(=O)(=O)n1c(C)nc2ccccc21 | inactive: 2.62% |  |
| O=C(Nc1ccc2c(c1)OCCO2)Nc1ccc2c(c1)OCO2 | inactive: 9.09% |  |
| COCCN1Cc2cc3cc(C)ccc3nc2SC1=Nc1ccc(OC)cc1 | inactive: 7.54% |  |
| CN(C)N=Nc1ccc(S(=O)(=O)NC(Cc2ccccc2)C(=O)O)cc1 (stereo not drawn) | inactive: -6.57% |  |
| O=C1c2ccccc2S(=O)(=O)N1CC(O)Cn1c2ccccc2c2ccccc21 (stereo not drawn) |  | active: 12.6 µM |
| CCOc1ccccc1N1CCN(C(=S)NC(=O)C23CC4CC(CC(C4)C2)C3)CC1 | inactive: 17.9% |  |

Reference: PubChem BioAssay AID1347073 (National Center for Advancing Translational Sciences (NCATS), 2019)
